The other results are listed elsewhere or left out. At the low end of the ranking the order means little. Measured with an extract: partners may take part in the binding.
Each sequence was assayed against T1, HNF4alpha2 (COS-7 nuclear extract) (UniProt P41235) (assay: protein-binding microarray). Conditions: COS-7 nuclear extract on double-stranded Agilent 4x180k PBM; binding buffer, salt, pH and temperature not given; high values mean tight binding; double strand, one strand shown; sequences stand for … in …GCCTAGGGAGATTAGAGTATCGGTCGA.
T1 sequence: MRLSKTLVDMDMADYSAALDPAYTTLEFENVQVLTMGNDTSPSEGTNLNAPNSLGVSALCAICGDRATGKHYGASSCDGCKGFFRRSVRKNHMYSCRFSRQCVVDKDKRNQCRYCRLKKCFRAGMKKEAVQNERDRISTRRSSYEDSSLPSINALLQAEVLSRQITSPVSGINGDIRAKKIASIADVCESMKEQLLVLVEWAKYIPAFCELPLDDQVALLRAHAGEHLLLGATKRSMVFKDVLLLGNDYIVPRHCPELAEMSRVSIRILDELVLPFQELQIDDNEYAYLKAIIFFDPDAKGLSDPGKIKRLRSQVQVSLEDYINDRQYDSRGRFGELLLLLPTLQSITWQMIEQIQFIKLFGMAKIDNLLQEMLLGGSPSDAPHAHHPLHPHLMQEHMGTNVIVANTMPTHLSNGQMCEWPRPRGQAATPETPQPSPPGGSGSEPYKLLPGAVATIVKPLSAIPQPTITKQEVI
AGGTGAACCAGGGTGCAATTCGCATTTCTG gave a binding signal (log2 normalized intensity) of -1.08. Work on AGGGAATGTAAGGCACTTTATCTAGATAAG yielded a binding signal (log2 normalized intensity) of -0.692. GGAGCATGGGGGATGGGGCCTGGGAGATAA was tested, and the binding signal (log2 normalized intensity) was -1.11. Work on TTATCACTTTGTAATGTCCCTCTTTATCTC yielded a binding signal (log2 normalized intensity) of 1.65. Work on TCGCGAATCTGGCTAATGCATGTCCCTCCT yielded a binding signal (log2 normalized intensity) of 0.0982. For TTAATTTAGCACTTAGTTCCCCAAATATTC, the binding signal (log2 normalized intensity) was 1.5. Work on TCACTGCTCTGGCCACTCCCTGGGCAGTGC yielded a binding signal (log2 normalized intensity) of -1.05. GGTGAGAGGGCTCTGTCTGCTGGGCCTTCA showed a binding signal (log2 normalized intensity) of -1.1. GGCTCAGGTTGCTGCCAGAGGGTGGCAGCA gave a binding signal (log2 normalized intensity) of -1.07. For CCAGTTCTGTGTACAAAGCCCCATATTCAT, the binding signal (log2 normalized intensity) was 1.96. In the case of ACAAAAACTGTTTCTATGTGACCTTCACCC, the binding signal (log2 normalized intensity) is reported as 5.26. For CTCAAGGCAAGTTGCTTCCACCTATGAGTC, the binding signal (log2 normalized intensity) was -0.669. CGACCTGCTGGGCTGCATTCCCAGATGGTT showed a binding signal (log2 normalized intensity) of -1.13. Sequence CTGGGAACAAGTTCTGCAGACTCCCTAGAA has a binding signal (log2 normalized intensity) of -0.99. In the case of GGCTAGATTGCAACCAAGTCCATCTGTATT, the binding signal (log2 normalized intensity) is reported as 0.676. Work on GGCCTACTTAGTCCAGGTTTAGCAAGAATA yielded a binding signal (log2 normalized intensity) of -1.18. TGGAGATAATAGGAGATAATAATACTTATC was tested, and the binding signal (log2 normalized intensity) was -1.05. With TCAGATTCCTCACTGATAAAACTGGAATAA the binding signal (log2 normalized intensity) was 0.496. In the case of GCCTGCCTGCCAACTCCACGCCCGCCGCCA, the binding signal (log2 normalized intensity) is reported as -0.921. For AGGCCTGGAACCTGTCTGACAGGATGAATT, the binding signal (log2 normalized intensity) was -0.627. Sequence TTATCTTCTCCCCTGCCAAATCATGGAGGT has a binding signal (log2 normalized intensity) of 1.43. For AAATGTCCTGAGTGATTGTAGTGTCATTGT, the binding signal (log2 normalized intensity) was 2.45. For TACTTTGGACTGGGGACCTGGTCTGAGATA, the binding signal (log2 normalized intensity) was 1.75. CGCGCGGGAGGAGGAGACAAAGGCCGCGCC showed a binding signal (log2 normalized intensity) of 2.07. With TGACTGTGATACCAGGGGTCATTTTATGGG the binding signal (log2 normalized intensity) was 2.84. AAGGAGGTGAACTTTGAGACTATCCTTGGA showed a binding signal (log2 normalized intensity) of 2.93. GAGTCTTAGAGTCCAGACACAAAGAGACAA gave a binding signal (log2 normalized intensity) of -1.13. In the case of TTATTTAGTAGTGGCAAGAGAAGCCCCATG, the binding signal (log2 normalized intensity) is reported as -0.71. With AGTGTGCACTTTGCACCTGGGCTGGAAAGG the binding signal (log2 normalized intensity) was 2.89. Work on GGGGAAACAAAATAATAGTTGACCTTTGAG yielded a binding signal (log2 normalized intensity) of 5.9. CTGTTTTGGATTTTAAAAGCCCTCAAATAC showed a binding signal (log2 normalized intensity) of 0.578. ACCACAGCGGGGCCTCTGTGTGGGGCTGAT was tested, and the binding signal (log2 normalized intensity) was -0.278. Sequence AAAGCCATGAAGCAATTCTGAGCCCAACCT has a binding signal (log2 normalized intensity) of -1.17. With ATCATCTCTTGTCTGGAATACCTTCTGCAT the binding signal (log2 normalized intensity) was 0.502. For TCTCCATTCAGCATTGCTTGGGAGCAGTCC, the binding signal (log2 normalized intensity) was -0.474. TGAGCAGGATTATAGTTTATCTACCTTTGT gave a binding signal (log2 normalized intensity) of 1.29. AGTGGCCCAGTGTCTCTGGGCGCTGGGAAG was tested, and the binding signal (log2 normalized intensity) was -0.864. For TGTTTGTTTCACTAATGTAGATTTTCTCTG, the binding signal (log2 normalized intensity) was -0.0729. For AACTGACTGCATTCCCTTTCTCCTCCCCTC, the binding signal (log2 normalized intensity) was 3.07. With TCTGTTGTCTCTGTAAATAAATGTCATTTA the binding signal (log2 normalized intensity) was 1.65.

Reference: publication PMC10726135
